Data on 67 sequences can be found in the supplement of paper PMC10126150.

The subject of this series is ATP. Description: switch fluorescence ratio, 500 uM ATP over buffer (Cy3 cluster intensity, sum of 5 cycles each) (fold (ratio)); higher = stronger signal-on switching upon ATP binding; sequences stand for … in TCGTCGGCAGCGTCAGATGTGTATAAGAGACAGTTTTTTTTTTTTTTTTTTTTTTTTT…TC. The conditions noted are these: aptamer strand: ATP DNA aptamer (quencher-CACCTGGGGGAGTATTGCGGAGGAAGG + anchor), 100 nM annealed; ATP concentration: 500 uM; one replicate. The essentials: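 The fluorescence ratio divides summed target-cycle Cy3 intensity by summed buffer-cycle Cy3 intensity for each cluster and is averaged per switch-domain sequence. Cy3-labelled switching-strand clusters on a modified Illumina MiSeq flow-cell were annealed to 100 nM quencher-labelled ATP aptamer, then imaged in selection buffer and again after 15 min with 500 uM ATP at 22 °C. Five such cycles were run, with NaOH stripping and re-annealing between them, and clusters outside 100-1000 RFU were excluded.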

Sequences with one replicate were seen in a single cluster, so their values are uncertain.
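Also: ATP exposure 15 min at 22 °C before imaging.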

For the sequence CTAGACAGCC, the switch fluorescence ratio amounted to 1.06.
Then ATAGGGATC, with 1.02; and TAAACATGGT, with 0.939.
For the sequence ATCGCTGGCA, the switch fluorescence ratio worked out at 0.958.
Then CGGACCAACT, with 1.03.
TATGACCCGA: the switch fluorescence ratio worked out at 1.01.
On to GCTAGATTTC, for which the switch fluorescence ratio was found to be 1.
Then CTCCTTTCGG, with 1.07; and ATGACGGGCC, with 0.996.
Then TAAGAGAGAG, with 0.99; and TGAGTCGAAA, with 0.994.
ATCAAGCTTG: the switch fluorescence ratio was determined as 1.03.
Then GAGGCGTATG, with 0.982; and CCACTCATG, with 1; and GAACGGTGAG, with 1.01.
Then CCAAAAGGGG, with 1.05; and CGGTATCTTT, with 0.993.
As for AAGGGTCGAA, the switch fluorescence ratio is 1.01.
Regarding GTAAGGATTG, the switch fluorescence ratio is 1.02.
On to TGCCTTGATA, for which the switch fluorescence ratio worked out at 0.97.
Then AGTTAAAAGA, with 1.01.
Then ACACTTTGTC, with 1.02; and AGGTGGCGCC, with 1.01; and CGATTATGGG, with 0.95.
Then CTCAGTAGG, with 1.06; and TCATCCAGAA, with 1.08.
For GCTGTGTACT, the switch fluorescence ratio was 1.04.
Then CTCCATACGG, with 1.15; and GCCGAAACGC, with 1.06; and GGACCGCGGA, with 1.02.
As to CCTCGATGTT, the switch fluorescence ratio amounted to 1.02.
With GGGCGAAAAC, the switch fluorescence ratio was determined as 1.04.
GAAAAAGAAC: the switch fluorescence ratio is 0.981.
Then GGAGAAATAA, with 0.987.
On to TGGGATAGAC, for which the switch fluorescence ratio came to 1.01.
Consider TACTTATCAT, for which the switch fluorescence ratio came out at 1.18.
Then ATAATGGGAT, with 0.975; and TACGGATCTT, with 1; and TGGCGGTTCC, with 0.976.
As to GCCCCGGCGT, the switch fluorescence ratio is 1.03.
Then GAGTCCCAT, with 1.05.
Then TTTGAGCTTC, with 0.974.
Then GTGGGATT, with 0.979; and AGGTAGAAG, with 1; and AATGACGGTT, with 0.963.
In the case of AATAAGTACG, the switch fluorescence ratio stood at 1.24.
Then CAGACTAAAG, with 1.01; and CACTGTGTAG, with 1.01; and TCAACACGGT, with 1.02.
Then CTGGGAGTGA, with 1.05; and GGCCTTGTTT, with 0.967.
Then TCATTACACG, with 1.01; and CAACGATCGG, with 1.01; and TCCGTGACTG, with 0.992.
For TACGCCCCG, the switch fluorescence ratio turned out to be 1.08.
Then CCGTACTCGA, with 1.48; and TCCAGAGAGT, with 1.
Then CACCAGCAGG, with 1.08; and TAGTGTATG, with 1.01.
Turning to GTACAAATGG, the switch fluorescence ratio was 0.995.
As to TTTCTTGCCC, the switch fluorescence ratio came to 1.06.
Turning to TTTCGCCGC, the switch fluorescence ratio worked out at 1.06.
Consider AGATACTCCT, for which the switch fluorescence ratio was determined as 2.33.
Then GTTCTTGTA, with 0.989.
As to AATGGCGAAG, the switch fluorescence ratio stood at 0.987.
With AGTTATTT, the switch fluorescence ratio stood at 0.997.
In the case of AAGGTTCCTT, the switch fluorescence ratio was 0.979.
